These are yes or no findings as the source states them, for the method shown. Binding seen in cells or lysates may run through a third protein. Some binding calls cover weakened binding; strength is not graded here. Where a sequence is shown, tags or fusion partners need not be part of it.
Experiments:
[1] = molecular target: T1, tof1 1182 truncation protein, C terminally TAP tagged (S. cerevisiae) (UniProt P53840); assay: co-IP; TAP-tagged Tof1 proteins captured on IgG Sepharose from cleared lysates of exponentially growing yeast; 2 h, 4°C; lysis buffer 50 mM HEPES pH 7.5, 300 mM KCl, 5 mM EDTA, 10 mM MgOAc, 10% glycerol, 0.01% Triton X-100; eluted in 0.2 M glycine pH 3.0; western blot with anti-Csm3
T1 sequence: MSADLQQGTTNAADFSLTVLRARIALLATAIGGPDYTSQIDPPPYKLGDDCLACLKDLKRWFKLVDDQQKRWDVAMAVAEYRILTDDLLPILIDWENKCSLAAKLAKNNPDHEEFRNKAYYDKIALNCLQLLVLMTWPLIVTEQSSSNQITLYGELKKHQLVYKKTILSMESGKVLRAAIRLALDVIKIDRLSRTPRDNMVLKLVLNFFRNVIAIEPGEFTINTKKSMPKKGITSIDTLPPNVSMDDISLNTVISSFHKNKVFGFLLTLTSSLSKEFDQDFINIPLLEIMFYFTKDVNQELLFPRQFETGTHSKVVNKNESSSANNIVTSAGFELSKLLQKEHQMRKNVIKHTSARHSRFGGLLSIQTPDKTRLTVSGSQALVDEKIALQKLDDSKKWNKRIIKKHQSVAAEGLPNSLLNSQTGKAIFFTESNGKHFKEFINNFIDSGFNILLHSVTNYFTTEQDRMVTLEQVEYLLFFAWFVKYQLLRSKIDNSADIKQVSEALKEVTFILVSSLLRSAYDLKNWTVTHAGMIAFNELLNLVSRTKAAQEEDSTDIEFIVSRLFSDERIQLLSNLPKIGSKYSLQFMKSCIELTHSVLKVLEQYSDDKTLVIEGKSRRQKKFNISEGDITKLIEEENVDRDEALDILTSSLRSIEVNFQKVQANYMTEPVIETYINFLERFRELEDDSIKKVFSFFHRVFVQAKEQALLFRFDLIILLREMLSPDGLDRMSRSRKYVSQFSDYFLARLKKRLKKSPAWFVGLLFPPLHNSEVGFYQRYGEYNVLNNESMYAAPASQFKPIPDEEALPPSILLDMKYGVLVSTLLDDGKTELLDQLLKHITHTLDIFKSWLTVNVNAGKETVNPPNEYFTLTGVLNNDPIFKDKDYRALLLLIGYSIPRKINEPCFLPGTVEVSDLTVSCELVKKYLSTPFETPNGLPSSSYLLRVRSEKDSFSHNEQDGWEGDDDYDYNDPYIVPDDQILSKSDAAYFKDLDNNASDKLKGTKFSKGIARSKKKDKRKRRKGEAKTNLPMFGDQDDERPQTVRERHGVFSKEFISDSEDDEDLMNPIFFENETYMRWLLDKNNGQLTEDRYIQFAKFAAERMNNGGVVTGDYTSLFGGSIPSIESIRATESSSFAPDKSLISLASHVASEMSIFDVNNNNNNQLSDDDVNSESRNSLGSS

[2] = molecular target: T2, tof1 762 truncation protein, C terminally TAP tagged (S. cerevisiae) (UniProt P53840); assay: as above
T2 sequence: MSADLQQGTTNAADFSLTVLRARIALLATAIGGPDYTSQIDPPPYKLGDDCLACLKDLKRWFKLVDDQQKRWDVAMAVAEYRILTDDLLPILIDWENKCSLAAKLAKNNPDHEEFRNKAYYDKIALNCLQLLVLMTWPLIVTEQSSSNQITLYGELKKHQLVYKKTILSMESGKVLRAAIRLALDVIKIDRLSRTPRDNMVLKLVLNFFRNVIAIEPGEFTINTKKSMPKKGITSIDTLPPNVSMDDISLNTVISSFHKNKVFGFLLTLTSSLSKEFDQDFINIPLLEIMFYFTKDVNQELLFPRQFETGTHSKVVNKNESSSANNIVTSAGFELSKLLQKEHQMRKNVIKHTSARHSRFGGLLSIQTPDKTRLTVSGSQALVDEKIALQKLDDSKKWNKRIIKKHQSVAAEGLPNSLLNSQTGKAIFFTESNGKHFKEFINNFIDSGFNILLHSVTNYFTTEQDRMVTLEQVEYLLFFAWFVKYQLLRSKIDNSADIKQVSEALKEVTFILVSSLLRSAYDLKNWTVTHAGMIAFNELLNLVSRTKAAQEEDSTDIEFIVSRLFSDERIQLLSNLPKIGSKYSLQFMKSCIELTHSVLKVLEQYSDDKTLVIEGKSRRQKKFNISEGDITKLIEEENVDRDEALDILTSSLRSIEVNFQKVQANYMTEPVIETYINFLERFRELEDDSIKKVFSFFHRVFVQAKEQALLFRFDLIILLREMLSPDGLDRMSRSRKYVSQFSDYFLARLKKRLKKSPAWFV

- binding [1]: binds
- binding [2]: no binding
B1: Csm3 (protein, UniProt Q04659 1-317)
chain: MDQDFDSLLLGFNDSDSVQKDPTVPNGLDGSVVDPTIADPTAITARKRRPQVKLTAEKLLSDKGLPYVLKNAHKRIRISSKKNSYDNLSNIIQFYQLWAHELFPKAKFKDFMKICQTVGKTDPVLREYRVSLFRDEMGMSFDVGTRETGQDLERQSPMVEEHVTSAEERPIVADSFAQDKRNVNNVDYDNDEDDDIYHLSYRNRRGRVLDERGNNETVLNNVVPPKEDLDALLKTFRVQGPVGLEENEKKLLLGWLDAHRKMEKGSMTEEDVQLIQSLEEWEMNDIEGQHTHYDLLPGGDEFGVDQDELDAMKEMGF

Source: PMC7708041
